The target in assay [1] is T1, GST-14-3-3γ (14-3-3γ fused with Glutathione-S-transferase) (human) (UniProt P61981).
T1 sequence: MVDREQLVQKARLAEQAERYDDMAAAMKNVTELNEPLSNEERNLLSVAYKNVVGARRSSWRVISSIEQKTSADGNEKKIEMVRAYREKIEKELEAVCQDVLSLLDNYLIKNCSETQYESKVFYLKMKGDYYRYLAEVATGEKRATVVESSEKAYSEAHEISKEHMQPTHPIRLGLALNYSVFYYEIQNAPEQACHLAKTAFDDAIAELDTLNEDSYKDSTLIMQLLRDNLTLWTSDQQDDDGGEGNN
The assay is described as follows: pull-down; GST-14-3-3γ purified from bacteria incubated 2 h with lysates of transfected cells, then glutathione-Sepharose 4B beads 2 h at 4°C; blotted with anti-GFP; only the target purified.

Chains of the proteins cited; added tags and fusions are not shown. Lines headed by an entry give the natural chain unless they say otherwise; changes in a name come on top. A line that says so, or that is headed by a name, gives the form on record, which may keep a tag or linker. Residues count along the entry.
UniProt Q8TD43: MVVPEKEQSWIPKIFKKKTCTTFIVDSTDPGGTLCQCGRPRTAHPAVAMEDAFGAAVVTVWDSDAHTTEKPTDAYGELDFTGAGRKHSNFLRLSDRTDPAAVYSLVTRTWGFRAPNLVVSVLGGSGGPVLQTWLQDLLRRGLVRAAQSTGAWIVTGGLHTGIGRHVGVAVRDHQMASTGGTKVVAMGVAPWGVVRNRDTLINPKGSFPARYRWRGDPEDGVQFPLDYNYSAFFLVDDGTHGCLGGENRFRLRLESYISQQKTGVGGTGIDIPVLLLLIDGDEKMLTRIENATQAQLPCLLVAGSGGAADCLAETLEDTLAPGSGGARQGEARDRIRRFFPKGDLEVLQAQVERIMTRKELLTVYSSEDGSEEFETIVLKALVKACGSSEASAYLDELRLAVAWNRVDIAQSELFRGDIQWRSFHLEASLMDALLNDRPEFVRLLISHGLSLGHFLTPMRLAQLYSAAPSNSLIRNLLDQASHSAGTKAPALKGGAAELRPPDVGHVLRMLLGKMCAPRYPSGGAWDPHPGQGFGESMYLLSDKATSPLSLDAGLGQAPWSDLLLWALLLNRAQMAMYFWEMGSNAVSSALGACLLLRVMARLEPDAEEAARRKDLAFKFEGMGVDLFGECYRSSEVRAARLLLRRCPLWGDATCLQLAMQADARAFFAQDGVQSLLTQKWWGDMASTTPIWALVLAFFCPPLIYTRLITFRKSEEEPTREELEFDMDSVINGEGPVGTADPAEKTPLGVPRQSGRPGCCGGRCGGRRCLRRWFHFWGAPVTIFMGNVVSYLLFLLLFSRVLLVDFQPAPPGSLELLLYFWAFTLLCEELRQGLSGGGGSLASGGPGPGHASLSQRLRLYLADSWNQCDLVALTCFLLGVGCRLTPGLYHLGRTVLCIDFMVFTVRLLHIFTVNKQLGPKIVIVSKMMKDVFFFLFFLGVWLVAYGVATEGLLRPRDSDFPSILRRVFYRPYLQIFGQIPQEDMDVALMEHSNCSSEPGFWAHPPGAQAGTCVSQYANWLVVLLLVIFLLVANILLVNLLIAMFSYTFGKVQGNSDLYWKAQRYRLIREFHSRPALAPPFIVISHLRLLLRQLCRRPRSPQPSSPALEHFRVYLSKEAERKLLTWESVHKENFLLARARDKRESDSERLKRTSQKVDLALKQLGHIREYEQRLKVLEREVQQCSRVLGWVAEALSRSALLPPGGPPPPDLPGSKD
GFP-tagged N174 (GFP-TRPM4b-N174): residues 1-174 of Q8TD43
VC-TRPM4a (TRPM4a fused to the C-terminal half of Venus): residues 175-1214 of Q8TD43
GFP-TRPM4b-N174 S88A (Q8TD43-1, form named): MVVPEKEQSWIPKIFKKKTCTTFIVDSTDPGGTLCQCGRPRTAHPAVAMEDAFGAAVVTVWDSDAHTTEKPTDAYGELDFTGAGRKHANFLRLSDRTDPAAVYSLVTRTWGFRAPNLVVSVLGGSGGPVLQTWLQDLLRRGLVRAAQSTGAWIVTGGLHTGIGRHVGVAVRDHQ
GFP-TRPM4b-N174 T42A (Q8TD43-1, form named): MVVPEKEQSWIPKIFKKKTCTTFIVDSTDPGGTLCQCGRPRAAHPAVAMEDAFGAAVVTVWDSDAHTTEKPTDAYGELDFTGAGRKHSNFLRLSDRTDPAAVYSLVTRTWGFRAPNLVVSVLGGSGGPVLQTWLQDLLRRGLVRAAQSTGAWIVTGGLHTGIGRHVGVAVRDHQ
GFP-TRPM4b-N174 T19A (Q8TD43-1, form named): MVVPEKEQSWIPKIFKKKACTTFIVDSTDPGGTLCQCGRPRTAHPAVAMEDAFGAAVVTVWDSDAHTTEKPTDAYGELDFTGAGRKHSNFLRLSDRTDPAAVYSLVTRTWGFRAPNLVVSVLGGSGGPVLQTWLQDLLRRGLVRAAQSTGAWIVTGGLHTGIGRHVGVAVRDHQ

In assay [2] the target is T2, FLAG-tagged 14-3-3γ (FLAG-14-3-3γ) (human) (UniProt P61981).
T2 sequence: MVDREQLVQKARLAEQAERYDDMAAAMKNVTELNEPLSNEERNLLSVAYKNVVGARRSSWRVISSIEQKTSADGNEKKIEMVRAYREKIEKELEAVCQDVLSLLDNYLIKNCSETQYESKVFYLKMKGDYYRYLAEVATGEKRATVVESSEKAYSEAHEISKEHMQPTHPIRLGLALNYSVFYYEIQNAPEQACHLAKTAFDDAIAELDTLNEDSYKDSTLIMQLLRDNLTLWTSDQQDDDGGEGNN
Put plainly: co-IP; lysates of co-transfected HEK293T cells, precipitated with anti-FLAG (M2) and protein A/G agarose at 4°C in 50 mM Tris-HCl pH 7.4, 150 mM NaCl, 5 mM EDTA, 1% NP-40; blotted with anti-GFP.

The target in assay [3] is GFP-tagged TRPM4b (GFP-TRPM4b) (not stated (human or mouse cDNA cloned)) (UniProt Q8TD43). Put plainly: co-IP; inverse experiment: lysates of co-transfected HEK293T cells precipitated with anti-GFP antibody, blotted with anti-FLAG.
Assay [4] deals with VC-TRPM4a (TRPM4a fused to the C-terminal half of Venus) (UniProt Q8TD43). Put plainly: split reporter; BiFC with split Venus halves (VN, VC), co-transfected HEK293T cells, fixed, confocal microscopy.
Assay [5] has as its target VC-TRPM4b (TRPM4b fused to the C-terminal half of Venus) (not stated (human or mouse cDNA cloned)) (UniProt Q8TD43). The description is as above.

These are yes or no findings as the source states them, for the method shown. In cells and extracts the contact can be indirect. Some binding calls cover weakened binding; strength is not graded here. Where a sequence is shown, tags or fusion partners need not be part of it.

As to “GFP-TRPM4b-N174 S88A (from UniProt Q8TD43-1 1-174) (domain or fragment)”, the binding entry in assay [1] is reported as “no binding”.

Turning to “GFP-TRPM4b-N174 T42A (from UniProt Q8TD43-1 1-174) (domain or fragment)”, the binding entry in assay [1] is “binds”.

Regarding “GFP-TRPM4b-N174 T19A (from UniProt Q8TD43-1 1-174) (domain or fragment)”, the binding result in assay [1] is reported as “binds”.

In the case of “GFP-tagged N174 (GFP-TRPM4b-N174) (from UniProt Q8TD43-1 1-174) (domain or fragment)”, the binding entry in assay [1] and in assay [2] was “binds” each time.

With “GFP-tagged TRPM4b (GFP-TRPM4b) (from UniProt Q8TD43-1 1-1214)”, the binding entry in assay [2] was “binds”.

B1: FLAG-tagged 14-3-3γ (FLAG-14-3-3γ) (protein, UniProt P61981 1-247)
chain: MVDREQLVQKARLAEQAERYDDMAAAMKNVTELNEPLSNEERNLLSVAYKNVVGARRSSWRVISSIEQKTSADGNEKKIEMVRAYREKIEKELEAVCQDVLSLLDNYLIKNCSETQYESKVFYLKMKGDYYRYLAEVATGEKRATVVESSEKAYSEAHEISKEHMQPTHPIRLGLALNYSVFYYEIQNAPEQACHLAKTAFDDAIAELDTLNEDSYKDSTLIMQLLRDNLTLWTSDQQDDDGGEGNN
As for B1, in assay [3], the binding entry is “binds”.

B2: VN-14-3-3γ (14-3-3γ fused to the N-terminal half of Venus) (protein, UniProt P61981 1-247)
chain: MVDREQLVQKARLAEQAERYDDMAAAMKNVTELNEPLSNEERNLLSVAYKNVVGARRSSWRVISSIEQKTSADGNEKKIEMVRAYREKIEKELEAVCQDVLSLLDNYLIKNCSETQYESKVFYLKMKGDYYRYLAEVATGEKRATVVESSEKAYSEAHEISKEHMQPTHPIRLGLALNYSVFYYEIQNAPEQACHLAKTAFDDAIAELDTLNEDSYKDSTLIMQLLRDNLTLWTSDQQDDDGGEGNN
In the case of B2, the binding entry is given as “binds weakly” in assay [4] and “binds” in assay [5].
